Results: the supplement of paper PMC12217912
The other results are listed elsewhere or left out. Sequences were assembled here from the parent chain. Inactive controls read about 0.05.

B1: TEV protease; numbered along this chain (parent)
chain: MGESLFKGPRDYNPISSSICHLTNESDGHTTSLYGIGFGPFIITNKHLFRRNNGTLVVQSLHGVFKVKDTTTLQQHLVDGRDMIIIRMPKDFPPFPQKLKFREPQREERICLVTTNFQTKSMSSMVSDTSCTFPSGDGIFWKHWIQTKDGQCGSPLVSTRDGFIVGIHSASNFTNTNNYFTSVPKNFMELLTNQEAQQWVSGWRLNADSVLWGGHKVFMVKPEEPFQPVKEATQL

Variants of: B1
Assay: raw area under fraction-flipped curve 0-4 h after induction (AUC4h, not background-subtracted), DNA-recorder readout of cleavage of the substrate (dimensionless); higher = more cleavage of the substrate by the protease variant
Settings: temperature: 34 °C; time window: 0-4 h after rhamnose induction
Method: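 In vivo DNA recorder in E. coli TOP10(DE3) ΔrhaA at 34 °C. Each TEVp single-site mutant (parent TEVp 0) is paired with a single-site variant of the 7-mer TEVs (canonical ENLYFQ|S). The substrate sits between flexible linkers in a Bxb1-sfGFP-TEVs-SsrA fusion, so cleavage stabilises Bxb1 and speeds flipping of a recombination array, read by NGS. The value is the raw area under the fraction-flipped curve over 0-4 h after rhamnose induction (AUC4h), with ≥20 reads per time point. It is not background-subtracted; inactive controls average about 0.047.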
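Further: Bxb1 expression induced with 0.2% (w/v) L-rhamnose at OD600 near 0.5, cultures sampled hourly, flipped fraction per protease–substrate barcode pair counted by paired-end Illumina sequencing.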

Row | Variant | area with substrate ENLYFQA | area with substrate ENLYFQC | area with substrate ENLYFQG | area with substrate ENLYFQI | area with substrate ENLYFQK | area with substrate ENLYFQL | area with substrate ENLYFQM | area with substrate ENLYFQQ | area with substrate ENLYFQR | area with substrate ENLYFQS | area with substrate ENLYFQT | area with substrate ENLYFQV | area with substrate ENLYFQW | area with substrate ENLYFQY | area with substrate ENLYFQD | area with substrate ENLYFQE | area with substrate ENLYFQH | area with substrate ENLYFQN | area with substrate ENLYFQF | area with substrate ENLYFQP
1 | R160P | 0.0772 | 0.0739 | 0.0692 | 0.0569 | 0.0552 | 0.0549 | 0.0754 | 0.0672 | 0.0542 | 0.0829 | 0.0478 | 0.0406 | 0.0611 | 0.0628 |  |  |  |  |  | 
2 | D161Y | 0.0661 | 0.0629 | 0.0596 | 0.0468 | 0.0477 | 0.059 | 0.054 | 0.0557 | 0.0558 | 0.0684 | 0.0478 | 0.0361 | 0.0528 |  | 0.0625 | 0.0397 | 0.0693 | 0.0514 |  | 
3 | G162A | 0.103 |  | 0.112 | 0.0627 | 0.116 | 0.054 | 0.0722 |  |  | 0.0965 | 0.0572 | 0.0792 |  | 0.0787 |  |  |  |  |  | 
4 | G162S | 0.123 | 0.0852 |  | 0.0799 | 0.0384 | 0.0644 | 0.0781 |  | 0.0682 | 0.0909 | 0.0843 |  | 0.0673 |  |  |  | 0.0613 | 0.0907 |  | 
5 | V165G | 0.0551 | 0.0548 | 0.0498 | 0.045 | 0.0579 | 0.0351 | 0.0527 | 0.0468 | 0.0276 | 0.0526 | 0.0516 |  |  | 0.057 | 0.0526 |  | 0.0495 | 0.0504 | 0.0745 | 
6 | I167S | 0.0674 | 0.0827 | 0.0735 | 0.0514 | 0.0594 | 0.0475 | 0.0607 |  | 0.0537 | 0.074 | 0.0525 | 0.0636 |  | 0.0703 |  |  | 0.0822 | 0.0592 | 0.0377 | 0.056
7 | H168C | 0.067 | 0.0622 |  | 0.0811 |  | 0.06 | 0.0596 |  | 0.0529 | 0.0622 | 0.0596 |  | 0.0473 |  | 0.0498 | 0.0498 | 0.0677 | 0.0628 |  | 0.0692
8 | S171V | 0.0751 | 0.0844 | 0.0498 | 0.061 | 0.0597 | 0.063 | 0.0636 |  | 0.0511 | 0.0751 | 0.0817 | 0.0521 |  |  |  |  | 0.0672 | 0.0709 | 0.0627 | 
9 | F173M | 0.113 | 0.141 |  |  | 0.0816 | 0.0585 | 0.0806 |  | 0.0523 | 0.109 |  |  | 0.0813 | 0.061 | 0.0735 | 0.0557 | 0.0559 |  | 0.0567 | 0.0409
10 | T174P | 0.0634 | 0.0899 |  |  | 0.0598 | 0.0576 |  |  | 0.0713 | 0.0776 | 0.058 | 0.0652 |  | 0.0646 |  |  | 0.087 | 0.0604 | 0.062 | 0.086
11 | N175E | 0.074 | 0.0956 |  |  | 0.0628 |  |  |  |  | 0.0759 | 0.0644 |  |  | 0.0673 |  |  |  |  |  | 
12 | S182K | 0.0809 | 0.0969 | 0.0837 | 0.0663 | 0.0605 | 0.0534 | 0.0723 | 0.0586 | 0.0655 | 0.079 |  | 0.057 | 0.0508 | 0.0532 | 0.056 | 0.0573 | 0.0688 |  | 0.054 | 0.0606
13 | S182N | 0.0796 | 0.0872 | 0.0993 | 0.0496 |  | 0.0469 | 0.0711 | 0.0557 | 0.059 | 0.0819 | 0.0473 | 0.0657 |  |  | 0.0544 |  | 0.0497 | 0.053 | 0.0785 | 0.0522
14 | V183N | 0.0544 |  |  | 0.0839 | 0.0527 |  |  |  | 0.0691 | 0.0861 |  |  | 0.0479 | 0.0448 |  |  |  | 0.0481 |  | 0.0638
15 | P184M | 0.0641 | 0.0538 | 0.0659 | 0.0544 | 0.0596 | 0.0579 | 0.0288 | 0.0377 | 0.0491 | 0.07 | 0.0548 | 0.0567 |  | 0.0622 | 0.0574 | 0.0713 |  | 0.0632 |  | 
16 | M188E | 0.0781 | 0.114 |  |  | 0.0722 | 0.0665 | 0.102 |  |  | 0.0964 |  |  |  |  |  |  |  | 0.0918 |  | 
17 | M188W | 0.0783 | 0.131 | 0.0978 | 0.0611 | 0.067 |  |  |  | 0.0661 | 0.101 | 0.0418 | 0.0647 | 0.0715 | 0.076 |  |  |  | 0.0592 | 0.07 | 0.0302
18 | E189M | 0.0893 | 0.0891 | 0.095 | 0.0526 | 0.0498 |  | 0.0708 |  | 0.0604 | 0.0924 | 0.0904 | 0.0565 | 0.062 | 0.105 |  |  | 0.0738 | 0.0677 | 0.0594 | 
19 | L190H | 0.108 | 0.0999 | 0.0733 | 0.0556 |  | 0.0581 | 0.111 | 0.0723 | 0.0628 | 0.0899 |  |  | 0.0673 |  |  | 0.06 | 0.0677 | 0.0593 |  | 
20 | L191G | 0.0675 |  | 0.064 | 0.0499 | 0.0689 | 0.06 |  |  | 0.0574 | 0.0605 | 0.0613 |  | 0.0423 | 0.0685 | 0.0529 |  | 0.0433 | 0.049 |  | 
21 | L191M | 0.121 | 0.096 | 0.094 | 0.064 | 0.063 | 0.0581 | 0.0786 |  | 0.0627 | 0.0954 | 0.071 | 0.0621 | 0.0656 | 0.069 | 0.0523 |  | 0.0714 | 0.069 |  | 0.0689
22 | T192F | 0.0965 |  | 0.0977 | 0.0764 | 0.0736 | 0.0657 |  | 0.0491 |  | 0.107 | 0.0626 | 0.0521 |  | 0.0508 |  |  |  | 0.0459 |  | 
23 | N193T | 0.106 | 0.0857 | 0.0775 | 0.061 |  | 0.0671 | 0.0627 |  | 0.0644 | 0.0921 | 0.0654 | 0.0927 | 0.0631 |  |  |  | 0.0616 |  |  | 
24 | E195M | 0.101 | 0.099 | 0.075 |  |  | 0.0621 | 0.112 |  |  | 0.0862 | 0.0613 | 0.0391 |  | 0.0775 |  |  | 0.0573 | 0.0679 |  | 0.0533
25 | A196E | 0.0921 | 0.114 | 0.106 | 0.0607 |  | 0.0654 |  |  | 0.0571 | 0.106 | 0.0566 | 0.0541 | 0.0645 |  | 0.0732 | 0.0686 | 0.088 | 0.0954 | 0.0855 | 0.0768
26 | Q198C | 0.0545 | 0.0976 | 0.0846 |  | 0.0542 | 0.0693 | 0.0732 |  | 0.0634 | 0.0963 | 0.0658 | 0.068 | 0.0569 |  |  |  | 0.0753 | 0.0585 |  | 0.0535
